# Test results from PubChem BioAssay AID434955 (Southern Research Specialized Biocontainment Screening …, 2010).
# The other results are listed elsewhere or left out. Further columns of the screen follow, without active or inactive calls. Most of these compounds were active or inconclusive in the main read-out, so they are no random draw.
# Assay: beta-lactam sensitization of Mtb H37Rv, H37Rv (AID 434955);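 further: growth measured after seven days incubation then overnight dye step; 0% = bacteria only wells and 100% = bacteria with antibiotic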
# Settings: M. tuberculosis H37Rv growth with meropenem, percent inhibition; measured here: primary screen without meropenem; at 25 µM
row,Structure (SMILES),inhibition
1,COC(=O)c1ccc(N2CCN(C)CC2)c(NC(=O)COc2ccc(C)cc2)c1,6.91%
2,O=C(Nc1nnc(SCc2ccccc2F)s1)C1=COCCO1,1.58%
3,COc1ccc(CCNC(=O)CCc2nnc(Cc3ccc4c(c3)OCO4)o2)c(OC)c1,2.72%
4,CCN1CCN(CCCNC(=O)C2CCN(c3nnc(-n4c(C)ccc4C)s3)CC2)CC1,1.1%
5,Cc1ccc(N(CCC#N)C(=O)COC(=O)c2ccccn2)cc1,2.91%
6,O=C(CCS(=O)(=O)c1ccccc1)Nc1nc2cc3c(cc2s1)OCCO3,13%
7,CC1CCN(Cc2nnnn2CCCC(=O)NC(c2ccccn2)C(F)(F)F)CC1 (configuration not stated),6.91%
8,CC1CCc2c(sc3nc(CN4CCOCC4)nc(Sc4ccccc4)c23)C1 (configuration not stated),8.68%
9,CC(NC(=O)c1ccccc1)C(=O)OCC(=O)N1c2ccccc2Sc2ccccc21 (configuration not stated),-2.59%
10,Cc1cc(N/C(=N\S(=O)(=O)c2ccc(Cl)cc2)c2ccc(F)cc2)no1,10.9%
11,O=C(NC1CCCC1)c1ccccc1OCc1ccccc1,15.4%
12,Cc1c(C(=O)NC(=S)Nc2ccccc2N2CCCC2)cccc1[N+](=O)[O-],31.9%
13,CC1CCC(C(=O)NC(C(=O)N2CCc3ccccc3C2)C(C)C)CC1 (configuration not stated),5.45%
14,NC(=O)C1CCN(C(=O)COCc2cc(-c3ccc4c(c3)OCO4)on2)CC1,1.04%
15,O=C(Cc1ccccc1)Nc1ccnn1C1CCN(Cc2ccc(CO)o2)CC1,-6.98%
16,O=C(Cn1nc(-c2ccccc2)c2ccccc2c1=O)Nc1cccnc1,-2.67%
17,COC(=O)c1cccc(NC(=O)CC2C(=O)NCCN2C(=O)Nc2cc(C)cc(C)c2)c1 (configuration not stated),19.4%
18,O=C(CCN1C(=O)/C(=C\c2cccs2)SC1=S)NC1=NCCS1,3.82%
19,C=CCN(CC=C)CCOc1ccccc1,-7.24%
20,CCOc1ccc(-c2csc(C3COc4ccccc4O3)n2)cc1 (configuration not stated),7.58%
21,Cc1ccc(C(=O)N/C(=C\c2ccco2)C(=O)NCCN2CCOCC2)cc1C,-2.69%
22,CCN1C[C@]2(COC(=O)c3ccccc3N)CC[C@H](OC)C34[C@@H]5C[C@H]6[C@H](OC)[C@@H]5[C@](O)(C[C@@H]6OC)[C@@](O)([C@H]13)[C@@H](OC)[C@@H]42,-1.77%
23,O=C(NCc1nnc(SCC(=O)N2CCCC2)o1)c1cccc(C(F)(F)F)c1,1.49%

row,Structure (SMILES),inhibition
1,O=C(N/N=C/c1ccc(Br)s1)c1c[nH]c2ccccc12,-9.2%
2,Fc1ccc(-c2nnc(CSc3nnc(-c4ccc5c(c4)OCO5)o3)o2)cc1,-1.77%
3,CN(CC(=O)NC1CC1)S(=O)(=O)c1ccc(Br)cc1,2.4%
4,CSCCC(NS(=O)(=O)c1ccc(C)cc1)C(=O)NCCc1c[nH]c2ccccc12 (configuration not stated),25.7%
5,COCCC(=O)N1CCC(Oc2ccc(C(=O)N3CCCCC3CCO)cc2)CC1 (configuration not stated),0.25%
6,COc1ccc(C)c2sc(NC(=O)CCS(=O)(=O)c3ccccc3)nc12,1.8%
7,CC(=O)Nc1ccc(NC(=O)c2c(-c3ccccc3)noc2C)cn1,1%
8,N#C/C(=C/c1ccc(N2CCCCCC2)o1)c1cccc(F)c1,86.4%
9,O=C(CC1C(=O)NCCN1Cc1ccc(F)cc1Cl)NC1CCCCCCC1 (configuration not stated),-6.59%
10,Cc1ccc(NC(=S)NC(NC(=O)N(C)C)C(Cl)(Cl)Cl)cc1 (configuration not stated),-4.76%
11,c1ccc(OCc2nnc(-c3ccccc3)o2)cc1,3.84%
12,COc1cccc(C(=O)NC2CC(C)(C)Cc3c2cnn3-c2cccc(F)c2)c1OC (configuration not stated),15.4%
13,CC1CCc2nc(NC(=O)C3COc4ccccc4O3)sc2C1 (configuration not stated),28.4%
14,O=C(NC(=S)NC1CCSC1=O)c1ccc([N+](=O)[O-])cc1 (configuration not stated),-3.14%
15,COc1ccc(C(=O)NCc2ncccc2C)cc1OC1CCN(C(C)=O)CC1,-0.79%
16,CC1(C(=O)OCC(=O)Nc2nc(-c3ccc(F)c(F)c3)cs2)CC1(Cl)Cl (configuration not stated),49.9%
17,CCN(CC)c1ccc(C(=O)n2cnc3ccccc32)cc1,36.1%
18,N#Cc1ccccc1Cn1c(=O)n(Cc2ccc(C(=O)NCc3ccco3)cc2)c(=O)c2ccccc21,16.8%
19,CCCn1cc(S(=O)(=O)c2ccc(OC)cc2)c(=O)c2cc(OCC)ccc21,5.94%
20,c1ccc(-n2c3ccccc3c3ccccc32)cc1,-3.15%
21,CC(=O)N1c2ccc(S(=O)(=O)N3CCCC3C(=O)Nc3ccc(C)cc3)cc2CC1C (configuration not stated),2.92%
22,CC(C)CCSc1nc(N2CCOCC2)c2c(c1C#N)CC(C)(C)OC2,19.1%
23,CCC(C)(C(=O)Nc1ccc2c(c1)OCCO2)N(C(C)=O)c1ccc(C(N)=O)cc1 (configuration not stated),12.2%

row,Structure (SMILES),inhibition
1,Cc1[nH]c(-c2ccccn2)nc(=S)c1Cl,19.5%
2,CCOc1ccc(NC(=O)/C(C#N)=C/c2cn(CC(=O)O)c3ccccc23)cc1,2.92%
3,COc1ccc(C(=O)NC2CC2)cc1OC1CCN(Cc2ccc(F)cc2F)CC1,-1.32%
4,CC1(C)Cc2c(sc(NC(=O)C(=O)N3CCCCC3)c2C(=O)O)CO1,6.59%
5,CCN(CC)C(=O)CSc1nnc2nnc3cc(OC)ccc3n12,33.1%
6,CCOc1cccc(-c2nn3c(-c4ccccn4)nnc3s2)c1,-11.7%
7,Clc1ccc(CSc2ccc(-c3cccnc3)nn2)cc1,8.68%
8,O=c1oc2cc(O)ccc2cc1S(=O)(=O)c1ccccc1,-3.77%
9,Cc1ccc(-c2nc(N)sc2-c2ccccc2)cc1C,11.1%
10,O=C(NC1CCCCC1)c1cccc(OCc2ccccc2)c1,-3.37%
11,CC1=C(C(=O)Nc2ccc(C)cc2)C(c2ccc(N(C)C)cc2)NC(=O)N1 (configuration not stated),2.17%
12,CCCCc1nc(C(N)=O)c2[nH]c(=O)n(-c3ccccc3F)c2n1,5.14%
13,O=C(NCCCN1CCOCC1)c1ccc(N2CCOCC2)c([N+](=O)[O-])c1,-10.8%
14,CCc1ccc(S(=O)(=O)N2CCN(Cc3ccco3)CC2)cc1,6.06%
15,Cc1c(NC(=O)Nc2cccc(C#N)c2)c(=O)n(-c2ccccc2)n1C,8.93%
16,O=C(c1ccc(Oc2ccccc2)cc1)c1nc2c(n1O)CCCC2,54.2%
17,O=C(/C=C\c1ccc2c(c1)OCO2)NC1(C(=O)Nc2ccc3c(c2)OCCO3)CCCCC1,-2.34%
18,CC(C)c1cc(C(=O)N2CCCC(Nc3ccc(F)cc3)C2)n[nH]1 (configuration not stated),-5.02%
19,COc1ccc(C2C(C(=O)O)CC(=O)N2C2CCCCC2)cc1 (configuration not stated),-3.13%
20,O=C(COCc1cc(-c2ccc3c(c2)OCO3)on1)Nc1cccnc1Cl,85.4%
21,O=C(O)C1C(c2ccccc2)C(C(=O)OCCCO)C1c1ccccc1 (configuration not stated),-7.19%
